The densities may have been worked out from excess volumes.
Test: xn = mol fraction of the nth substance listed
Settings: 100 kPa

CC(=O)[O-].CC[n+]1ccn(C)c1 + OCc1ccco1
x1 = 1
Settings	mass density [kg/m3]
298.15 K	1097.5
303.15 K	1094.5
308.15 K	1091.4
313.15 K	1088.3
318.15 K	1085.2

OCc1ccco1 + CC(=O)[O-].CC[n+]1ccn(C)c1
mass density [kg/m3]
Settings	298.15 K	303.15 K	308.15 K	313.15 K	318.15 K
x2 = 0	1126.9	1122.3	1117.6	1112.9	1108.2
x2 = 0.0572	1129.3	1125	1120.6	1116.3	–
x2 = 0.1058	1129.6	1125.5	1121.4	1117.3	1113.1
x2 = 0.1534	1129	1125	–	1117.1	–
x2 = 0.2087	1127.8	1124	1120.1	1116.3	–
x2 = 0.3068	–	–	1117.5	–	1110.2
x2 = 0.408	1121	1117.5	1113.9	1110.4	1106.9
x2 = 0.5063	–	–	1110	1106.6	1103.2
x2 = 0.5513	1115	1111.5	1108.2	1104.8	–
x2 = 0.6031	1112.7	1109.4	–	–	1099.4
x2 = 0.7053	1108.5	1105.2	–	1098.7	–
x2 = 0.8045	1104.5	–	1098.1	1095	1091.8
x2 = 0.8441	1103.1	1099.9	1096.7	1093.6	1090.4
x2 = 0.902	1100.9	–	1094.7	1091.5	1088.4

Reference: a compilation of properties of binary mixtures (doi:10.1016/j.molliq.2017.06.029)
